Results from US7455984B2, “Immunoreactive and immunotherapeutic molecules” (The Walter and Eliza Hall Institute of Medical Research, priority 1995, dated 2008).

Key:
[1] = system: PBMCs from IDDM at-risk and HLA-DR-matched controls; experiment: T-cell proliferation ([3H]thymidine uptake after 6 days), second cohort of 18 pairs; assay type: cell-based, human; conditions: p=0.003
[2] = system: PBMCs from IDDM at-risk and HLA-DR-matched controls; experiment: T-cell cytokine secretion assay, IFN-γ by ELISA; conditions: media sampled after 2 days; 18 pairs; p=0.005
Procedure: (§1) In a second cohort of 18 paired IDDM at-risk and HLA-DR-matched controls, PBMCs indicated as per Example 3 were incubated with human proinsulin 24-36 and human insulin B chain 1-15 each at 0.5, 5 and 50 μg/ml under the conditions as per Example 3. In addition to harvesting cells for the measurement of proliferation by [^3H] thymidine uptake after 6 days, as per Example 3, incubation media above the cells was sampled after 2 days for the measurement of IFN-γ and interleukin-(IL-) 10 by standard ELISA methods.

[3] = system: PBMCs from IDDM at-risk and HLA-DR-matched controls; experiment: T-cell cytokine secretion assay, IL-10 by ELISA; conditions: media sampled after 2 days; 18 pairs; p=0.001
Procedure: as §1

FFYTPKTRREAED [Proinsulin]
Proliferative response of IDDM at-risk subjects versus matched control subjects [1]: significantly greater | IFN-γ secretion, IDDM at-risk versus matched control subjects [2]: significantly increased | IL-10 secretion, IDDM at-risk versus matched control subjects [3]: significantly increased
